# Experimental data as given in PubChem BioAssay AID485367 (National Center for Advancing Translational Sciences (NCATS), 2010).
# Screen size: about 330,000 compounds; about 560 (0.17%) were called active. This list was built around the results that the source calls inconclusive (neither active nor inactive); the mix of calls is not that of the screen. Calls come from the whole dose curve; as a rule, active = well fitted inhibition curve with a large enough effect; inconclusive = small, poorly fitted or top-dose-only effect, or effect the other way; inactive = flat fitted curve, though single readings scatter. No potency is given beside an inconclusive call; the fits are too rough.
# Molecular target: ATP-dependent 6-phosphofructokinase (Trypanosoma brucei brucei) (UniProt O15648)
# Chain of UniProt O15648 (O15648 whole entry, looked up): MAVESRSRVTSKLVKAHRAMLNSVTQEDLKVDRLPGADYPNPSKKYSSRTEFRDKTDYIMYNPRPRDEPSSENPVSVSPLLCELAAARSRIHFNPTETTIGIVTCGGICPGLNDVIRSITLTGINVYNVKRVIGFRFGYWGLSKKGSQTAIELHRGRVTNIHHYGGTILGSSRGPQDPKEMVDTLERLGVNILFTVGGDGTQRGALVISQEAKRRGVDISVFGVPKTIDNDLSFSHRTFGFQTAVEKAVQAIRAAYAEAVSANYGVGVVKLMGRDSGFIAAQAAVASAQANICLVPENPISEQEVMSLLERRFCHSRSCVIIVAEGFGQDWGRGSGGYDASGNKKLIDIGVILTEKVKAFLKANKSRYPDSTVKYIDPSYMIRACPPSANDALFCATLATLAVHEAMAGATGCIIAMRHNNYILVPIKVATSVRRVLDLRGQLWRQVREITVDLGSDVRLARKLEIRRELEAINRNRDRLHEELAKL
# Assay: qHTS Assay to Find Inhibitors of T. brucei phosphofructokinase; note: nearly all actives have a fitted effect of over 60% in size;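 for activity, negative = inhibition: 0% = uninhibited 1x PFK enzyme wells and -100% = no-enzyme wells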
# Details: T. brucei PFK, ADP-Glo luminescence; activity, negative = inhibition: at 57.5 µM (top of the series)
# Procedure, shortened: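 Compounds were pin-transferred as a titration series up to 57 uM into substrate buffer (0.5 mM F6P, 0.1 mM ATP, pH 8.0), then 1.25 nM PFK was added and reactions ran 45 min before ADP-Glo detection.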
# Potency is the fitted concentration of half-maximal effect; tags give direction and shape of the fitted curve.
Compound,"activity, negative = inhibition",Potency
COc1ccc(/C=C2\SC(=S)N(CCCC(=O)Nc3ccccn3)C2=O)cc1OC,inactive: -0.531%,
Cc1ccc(C(CCN(Cc2ccccc2)C(=O)c2ccco2)c2ccco2)cc1 (configuration not stated),,"inconclusive [falling, single point]"
Cc1cc(C)cc(NC(=O)CSc2nncn2-c2ccccn2)c1,,"inconclusive [falling, single point]"
Nc1cccc2[nH]c(C(F)(F)F)nc12,,"inconclusive [falling, single point]"
Cc1ccc2cc(C)c3nnc(SCC(=O)NCc4ccco4)n3c2c1,,"inconclusive [falling, single point]"
CC1CCc2c(nc3sc4c(c3c2N)CCCC4)C1 (configuration not stated),inactive: 4.27%,
CCOC(=O)N1CCN(Cc2nc3c(c(=O)n(C)c(=O)n3C)n2Cc2ccc(F)cc2)CC1,inactive: -15.5%,
CCOC(=O)N1CCC(NC(=O)c2cccc3c2C(=O)N(c2ccc(OC)cc2)C3)CC1,,"inconclusive [falling, partial curve]"
O=C(OC(C(=O)NCC1CCCO1)c1ccc(F)cc1)c1ccco1 (configuration not stated),,"inconclusive [falling, single point]"
O=C(NC1CCCCCC1)c1c(O)c2cccc3c2n(c1=O)CCC3,inactive: 0.154%,
Cc1ccsc1C(=O)NCCc1ccco1,,"inconclusive [falling, single point]"
O=C(CSc1ccsc1[N+](=O)[O-])N1CCN(c2ccc(Cl)cc2)CC1,,"inconclusive [falling, single point]"
[O-][n+]1c2ccc3nonc3c2nn1-c1ccccc1Cl,,"inconclusive [falling, single point]"
COc1cc(-c2cc(C(=O)Nc3cccc(C(C)=O)c3)c3ccccc3n2)cc(OC)c1OC,inactive: -6.13%,
Cc1cc(NC(=O)Nc2ccc(Cl)c(Cl)c2)n(-c2ccccc2)n1,,active: 19 µM
O=C(N/N=C/c1cccs1)C1COc2ccccc2O1 (configuration not stated),inactive: -11.1%,
CCNc1ccc(C(=O)N/N=C/c2c(C)nn(-c3ccccc3)c2N2CCCC2)cc1[N+](=O)[O-],,"inconclusive [falling, single point]"
CCOC(=O)c1cccc(NC(=O)CS(=O)(=O)Cc2nc(-c3cccc(OC)c3)oc2C)c1,,"inconclusive [activator, single point]"
O=[N+]([O-])c1ccc(CS(=O)(=O)c2ncn[nH]2)cc1,inactive: 4.94%,

Compound,"activity, negative = inhibition",Potency
CC1(C)S[C@@H]2[C@H](NC(=O)[C@H](N)c3ccccc3)C(=O)N2[C@H]1C(=O)O,,"inconclusive [falling, partial curve]"
Cc1ccc(NCc2ccc(O)c3ncccc23)cc1,,"inconclusive [falling, partial curve]"
CCCCCCNCc1cccc(Br)c1,,"inconclusive [falling, single point]"
CC(=O)NC(C(=O)N1CCC(c2nc3ccccc3s2)CC1)C(C)C (configuration not stated),,"inconclusive [falling, single point]"
COC(CNC(=O)c1cnn2c(C)c(Cc3ccccc3)c(C)nc12)OC,inactive: 13.2%,
CCn1c(/C=C2/C(=O)N(C)c3ccccc32)nc2ccccc2c1=O,,"inconclusive [falling, single point]"
O=C1CCCN1CCCNC(=S)Nc1ccc(F)c(Cl)c1,,"inconclusive [falling, single point]"
Cc1ccc(S(=O)(=O)N2CCCCC2)cc1NC(=O)CSCC(=O)O,inactive: 3.53%,
O=C(NN1C(=O)c2ccc(-c3ccc4c(c3)C(=O)N(NC(=O)c3cccnc3)C4=O)cc2C1=O)c1cccnc1,,"inconclusive [activator, partial curve]"
CC1=NN(C(N)=S)C(=O)C1N=Nc1ccccc1 (configuration not stated),inactive: -4.82%,
c1ccc2c(c1)[nH]c1nc(SCCN3CCOCC3)nnc12,,"inconclusive [falling, partial curve, poor fit]"
COc1ccc(CCN2C(=O)CC(C(N)=O)SC2=Nc2ccccc2)cc1OC (configuration not stated),,"inconclusive [falling, single point]"
CCCCCCn1c(SCC(=O)OC)nc2c1c(=O)[nH]c(=O)n2C,,"inconclusive [falling, full curve, poor fit]"
Cc1cc(C)nc(NS(=O)(=O)c2ccc(NC(=O)c3cc(-c4ccccc4)nc4ccccc34)cc2)n1,inactive: 6.98%,
Cc1cc(C)n(-c2nc(N(c3ccccc3)c3ccccc3)nc(-n3nc(C)cc3C)n2)n1,inactive: 0.245%,
Cc1cc(C)cc(-n2cccc2/C=C2/C(=N)N3C(=NC2=O)SN=C3S(C)(=O)=O)c1,inactive: -6.43%,
CN(C)CCCN(C(=O)CCOc1ccccc1)c1nc2ccc(F)cc2s1,,"inconclusive [falling, single point]"
COc1ccccc1C(=O)NC(C)C(c1cccs1)N1CCOCC1 (configuration not stated),,"inconclusive [falling, single point]"
Cc1ccc(NC(=O)C(=O)NNC(=O)c2cccs2)cc1,,"inconclusive [activator, partial curve]"

Compound,"activity, negative = inhibition",Potency
CC(C)[C@H](NS(=O)(=O)c1cccc(Cl)c1)C(=O)OCC(=O)NC(=O)CN1CCCC1=O,,"inconclusive [falling, single point]"
Cc1cc(Br)cc(Cl)c1OC(=O)c1cnccn1,,"inconclusive [falling, single point]"
O=C(NC1CCCCC1)c1ccc2c(c1)OCCO2,,"inconclusive [falling, single point]"
COC(=O)c1ccccc1NC(=O)c1noc2c1CCC2,,"inconclusive [falling, single point]"
O=C1CCCC2=C1C(c1ccco1)Nc1ccc3ccccc3c12 (configuration not stated),,"inconclusive [falling, single point]"
Cc1cccc(N2CCN(C(=O)Cn3sc4nc(C)cc(C)c4c3=O)CC2C)c1 (configuration not stated),,active: 15.1 µM
COc1ccc2nc(N(Cc3ccccc3)C(=O)CCNC(C)=O)sc2c1,inactive: 0.542%,
Cc1ccc(-n2ncc3c(NCC4CCCO4)ncnc32)c(C)c1 (configuration not stated),,"inconclusive [falling, single point]"
Cc1cccc(NC(=O)CNC(=O)c2cccc(-n3cccc3)c2)c1C,,active: 21.3 µM
COc1cc(NC(=S)N2CCCC(C)C2)c(OC)cc1Cl (configuration not stated),,"inconclusive [falling, partial curve]"
O=C1C=C(NCc2ccc(Cl)c(Cl)c2)C2(CCCCC2)O1,,active: 16.9 µM
CC(C(=O)N1c2ccccc2Sc2ccccc21)n1nnc(-c2cccs2)n1 (configuration not stated),inconclusive: 39.8% [activator],
O=C(COC(=O)CNC(=O)c1ccc(-c2ccccc2)cc1)NCc1ccco1,,"inconclusive [falling, single point]"
O=c1nc2s/c(=C\c3ccco3)c(=O)n2nc1Cc1ccc(F)cc1,,"inconclusive [falling, partial curve]"
Cc1ccc(C(=O)O/N=C(\N)c2ccccn2)cc1,,"inconclusive [falling, single point]"
CSc1nc(NCCOCCO)c2sc3nc(-c4ccco4)c4c(c3c2n1)CCC4,,"inconclusive [falling, partial curve]"
CC(C)c1ccc(S(=O)(=O)/N=C2\C=C(NS(=O)(=O)c3ccccc3)C(=O)c3ccccc32)cc1,,"inconclusive [falling, partial curve]"
N#Cc1c(-c2ccc(Cl)cc2)cc(-c2cccs2)nc1SCC(=O)O,inactive: -17.3%,
N#Cc1c(C(F)(F)F)cc(=O)n2c1[nH]c1ccccc12,,"inconclusive [falling, single point]"
